Measurements as given in publication PMC4336329 (PLoS ONE, 2015).
Screen size: about 310,000 compounds; about 14,000 (4.5%) showed an effect of 50% or more. The effect is printed as a negative number. This is one part of the list.

target: human ether-à-go-go-related gene (hERG) potassium channel (human, UniProt Q12809); assay: primary screen, population patch clamp on CHO cells stably expressing hERG
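Also: peak tail current of the secondary pulse compared with the same well before compound.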

Chain of human ether-à-go-go-related gene (hERG) potassium channel (Q12809 whole entry, looked up): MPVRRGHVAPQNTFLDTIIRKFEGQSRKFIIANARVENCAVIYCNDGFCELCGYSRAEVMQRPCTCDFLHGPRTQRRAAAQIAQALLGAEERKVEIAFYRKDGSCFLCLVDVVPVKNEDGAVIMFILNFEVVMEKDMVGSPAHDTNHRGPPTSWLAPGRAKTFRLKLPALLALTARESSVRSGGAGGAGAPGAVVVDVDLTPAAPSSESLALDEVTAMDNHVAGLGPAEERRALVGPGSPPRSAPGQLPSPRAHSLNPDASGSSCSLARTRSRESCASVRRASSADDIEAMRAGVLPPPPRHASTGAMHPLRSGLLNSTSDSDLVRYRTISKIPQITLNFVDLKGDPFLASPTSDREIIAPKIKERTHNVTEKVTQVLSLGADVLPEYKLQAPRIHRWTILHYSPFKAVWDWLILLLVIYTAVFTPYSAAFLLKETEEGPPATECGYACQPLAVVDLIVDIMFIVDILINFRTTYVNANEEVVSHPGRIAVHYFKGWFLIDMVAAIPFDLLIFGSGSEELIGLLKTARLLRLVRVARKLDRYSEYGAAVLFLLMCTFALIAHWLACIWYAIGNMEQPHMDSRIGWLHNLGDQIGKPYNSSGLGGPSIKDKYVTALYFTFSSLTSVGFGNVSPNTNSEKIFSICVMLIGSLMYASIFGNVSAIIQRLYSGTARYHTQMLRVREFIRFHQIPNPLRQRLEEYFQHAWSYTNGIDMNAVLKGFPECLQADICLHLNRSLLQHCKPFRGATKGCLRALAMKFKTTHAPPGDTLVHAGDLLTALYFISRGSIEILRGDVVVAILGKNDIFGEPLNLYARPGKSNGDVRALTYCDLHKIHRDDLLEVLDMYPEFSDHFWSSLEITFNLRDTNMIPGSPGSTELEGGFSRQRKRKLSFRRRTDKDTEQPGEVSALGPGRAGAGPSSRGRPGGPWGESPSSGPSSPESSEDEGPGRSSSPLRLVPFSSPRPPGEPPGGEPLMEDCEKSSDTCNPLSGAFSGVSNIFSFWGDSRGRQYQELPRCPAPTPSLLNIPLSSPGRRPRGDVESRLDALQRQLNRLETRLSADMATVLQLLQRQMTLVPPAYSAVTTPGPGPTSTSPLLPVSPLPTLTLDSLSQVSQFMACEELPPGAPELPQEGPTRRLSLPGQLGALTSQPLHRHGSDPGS

Structure (SMILES) | hERG current change (%, negative = inhibition) at 10uM [%]
CC1CN(C(=O)CCC(=O)NCc2ccccc2)c2cc(Cl)ccc2O1 (centres unmarked) | -11.5
CCc1cccc(OCC(=O)Nc2ccc(C)c(S(=O)(=O)N3CCCCCC3)c2)c1 | -2.51
CCOCCCN(C)C1CCN(C(=O)c2oc3ccccc3c2NC(=O)COc2ccc(F)cc2)CC1 | -80.1
CCOc1ccc(OCC)c(NC(=O)CCS(=O)(=O)c2ccc(Br)s2)c1 | 8.53
CN(c1ccccc1C(=O)Nc1ccccc1C(=O)NCc1ccco1)S(C)(=O)=O | -13
Cc1ccccc1NC(=O)CNc1ccccc1C(=O)NCc1ccco1 | 8.35
O=C(Nc1ccc(F)cc1F)c1ccc2c(c1)OCCO2 | 15.4
CC1(OC(=O)C2CCCC2)C(=O)C=C2C=C(c3ccsc3)N(CCc3ccccn3)C=C2C1=O (centres unmarked) | -18.8
Cc1ccc(C(=O)NNC(=O)c2cccnc2SCc2cccc([N+](=O)[O-])c2)cc1 | 19.4
CN(C)S(=O)(=O)c1ccc(N2CCCC2)c(C(=O)NCc2cccc(C(F)(F)F)c2)c1 | 4.61
CCOC(=O)c1cn(C2CC2)c2c(F)c(NCCCN(C)C)c(F)cc2c1=O | 10.7
COc1cc(/C=C/c2cc[n+](C)cc2)ccc1OCC(=O)Nc1ccccc1.[I-] | 10.7
Cc1cc(C(=O)OCC(=O)N2CC(=O)Nc3ccccc32)c(C)n1-c1ccccc1 | 4.06
COc1ccc(-c2csc(NC(=O)c3ccco3)n2)cc1.Cl | -5.12
Cc1ccc(C)c(NC(=O)COC(=O)c2c(C)nn(-c3ccccc3)c2C)c1 | -3.78
O=C(NC1CCCC1)C(c1c[nH]c2ccccc12)N(C(=O)Cn1nnc(-c2ccc(Cl)cc2)n1)c1ccccc1 (centres unmarked) | -12.6
Cn1ncc2c(NCc3ccccc3)nc(NCCCO)nc21 | 9.11
CNC(=O)NC(O)C(Cl)(Cl)Cl (centres unmarked) | 29.6
Cc1ncc(CO)c(/C=N/Nc2ccc(C(F)(F)F)cn2)c1O | -4.15
COc1ccc(Cl)cc1C(=O)Nc1ccc(NC(=O)c2ccco2)cc1 | 16.8
Cc1c(C(=O)N2CCN(C(c3ccccc3)c3ccccc3)CC2)oc2ccccc12 | 11.2
Cc1ccc(Nc2nc(Cl)c(C=O)s2)cc1 | -0.0108
O=C(c1ccccc1)c1ccc(Oc2ccc(C(=O)O)c(C(=O)O)c2)cc1 | 12.5

Structure (SMILES) | hERG current change (%, negative = inhibition) at 10uM [%]
Cc1ccsc1CNC12CC3CC(CC(C3)C1)C2.Cl | -19.2
Clc1ccc(-n2nnnc2Sc2ncnc3sccc23)cc1 | 12.8
O=S(=O)(Cc1nnnn1-c1ccccc1)c1ccc(F)cc1 | 6.02
CCOc1ccccc1N1CCN(S(=O)(=O)c2cccc3nsnc23)CC1 | -27
CCOCCCNCc1ccc(OC)c(OC)c1.O=C(O)C(=O)O | 3.24
O=C(CN1C(=O)NC2(CCCC2)C1=O)Nc1cc(C(F)(F)F)ccc1N1CCCCC1 | -0.754
N#CCn1cc(/C=N/NC(=O)c2cc3c(ccc4ccccc43)o2)c2ccccc21 | 13.4
C=CCNC(=O)c1ccc(C2SCC(=O)N2Cc2ccco2)cc1 (centres unmarked) | -21.7
O=C(NCc1ccc(Cl)cc1)c1cnccn1 | -10.3
Cc1cc(C)nc(SCC(=O)NN)n1 | 21.1
Cc1cccc(NC2SC(=O)NC2=O)c1 (centres unmarked) | -11.3
O=C(CSc1nnc(-c2ccncc2)n1Cc1ccco1)N1c2ccccc2Sc2ccc(Cl)cc21 | -2.92
CC(=O)NS(=O)(=O)c1ccc(NC(=O)CC23CC4CC(CC(Br)(C4)C2)C3)cc1 | 25.9
NC(=O)c1ccccc1OCC(=O)Nc1ccc(Cl)c(Cl)c1 | 0.426
CN(C)S(=O)(=O)c1ccc(C(=O)N2CCN(C(=O)C3CCCO3)CC2)cc1 (centres unmarked) | 5.14
Cc1cccc(Nc2ccc([N+](=O)[O-])cn2)c1 | 10.9
O=C1CN(C(=O)COC(=O)c2ccc[n+]([O-])c2)c2ccccc2N1 | 22.9
CCOC(=O)C1=NNC2C(=O)N(Cc3ccccc3)C(=O)C12 (centres unmarked) | 5.91
COc1ccc(C(=O)N2CCC(C(=O)Nc3ccc(OC)c(OC)c3)CC2)cc1 | 1.37
Cn1ncc(C(N)=O)c1NC(=S)NC(=O)c1ccc(Br)o1 | 10.1
O=C(O)CCCCCCCCc1cn(CN2C(=O)c3ccccc3C2=O)nn1 | 13.3
CSc1ccc(S(=O)(=O)NCC(=O)OCC(=O)N2CCCC2=O)cc1[N+](=O)[O-] | -9.51
CCN(CC)c1ccc(S(=O)(=O)N2CCOCC2)cc1NC(=O)CSc1ccccc1 | -16.3

Structure (SMILES) | hERG current change (%, negative = inhibition) at 10uM [%]
O=C(c1cccc(Cl)c1)N1CCN(Cc2ccccc2F)CC1 | 10.1
O=C(NCCc1c[nH]c2ccccc12)Nc1ccccc1 | 12
CCOc1ccc(OCC)c(NC(=O)C2CCCN(S(=O)(=O)c3ccc(C)cc3)C2)c1 (centres unmarked) | 13.9
Clc1ccc2nc(-c3ccc(Cl)nc3)[nH]c2c1 | 3.76
O=C(NC(=S)N1CCN(C/C=C/c2ccccc2)CC1)c1ccc(Cl)nc1 | -23.5
COc1cccc(/C=C/C(=O)OCC(=O)NCCC2=CCCCC2)c1 | 1.2
Cc1nnc(NC(=O)c2csc3c2CCCC3)s1 | 8.52
CCOc1ccccc1C1C(C#N)=C(N)Oc2cc(N)ccc21 (centres unmarked) | -5.58
O=C(CN1CCN(Cc2ccc(F)cc2)C1=O)NC1CCCC1 | -6.54
Cc1ccc(S(=O)(=O)c2nc(S(C)(=O)=O)sc2N2CCCC2)cc1 | 14.5
Cc1cc(C(F)(F)F)c2c(N)c(C(=O)NC3CC3)sc2n1 | 18.7
Cn1c(CN2CCOCC2)nnc1SCC(=O)Nc1cccc(C(F)(F)F)c1 | -1.04
CCOC(=O)c1c(C)[nH]c(C)c1C(=O)COc1ncnc2ccccc12 | 23.3
O=C(c1cc(-c2ccc(F)cc2)on1)N1CCCCCC1 | 2.96
COc1cccc(/C=C(\C#N)c2nc3ccccc3[nH]2)c1OCC(=O)O | 29.2
CC(C)CCNC(=O)CN(C)S(=O)(=O)c1cccc2nsnc12 | -1.24
CCn1c(CNc2ccc(Cl)cc2)nnc1SCC(=O)OC1CCCCC1 | -37
Cc1ccc2cc(CN(Cc3ccco3)C(=O)c3cccs3)c(=O)[nH]c2c1 | -9.06
COc1ccccc1CCC(=O)OCC(=O)N1c2ccccc2NC(=O)C1(C)C | 9.94
O=C(Cn1nc(-c2cccc([N+](=O)[O-])c2)c2ccccc2c1=O)NCC1CCCO1 (centres unmarked) | -34.1
NC(=O)CN1CCN(C(=O)NC2CCCCC2)CC1 | 5.46
CCOc1ccc(-c2cccc(NS(=O)(=O)c3ccc([N+](=O)[O-])cc3)c2)nn1 | -11.7
O=C(Nc1cccc(S(=O)(=O)N2CCOCC2)c1)c1cc2c(s1)CCC2 | -33.8

Structure (SMILES) | hERG current change (%, negative = inhibition) at 10uM [%]
Cc1ccnc(SC2CC(=O)N(c3ccc(Br)cc3)C2=O)n1 (centres unmarked) | 9.29
COc1ccc2c(c1)CCCC21SC(NC(C)=O)=NN1C(C)=O (centres unmarked) | 5.45
CC1CCC(NC(=O)CSc2nncs2)CC1 (centres unmarked) | 0.49
CCCCOCCCNC(=O)COc1ccccc1 | 2.15
CC(C)CNC(=O)NC(=O)CSc1nc2ccccc2n1CC(C)C | 0.388
Cc1nc(SCC(=O)N2CCOCC2)c2ccsc2n1 | 1.76
Nc1cc(N)nc(SCC(=O)Nc2ccc3c(c2)OCO3)n1 | -7.3
CCOc1cc2c(cc1C=O)OC(C)C2 (centres unmarked) | 22.1
CCOC(=O)N1CCN(C(=O)COc2cc(=O)n(C)c3ccccc23)CC1 | -0.615
CCN(CC)CCOC(=O)c1ccc(N/C=C(/C#N)c2nc(-c3ccc4c(c3)OCO4)cs2)cc1 | 6.58
O=S(=O)(NC1CN2CCC1CC2)c1ccc(Cl)cc1 (centres unmarked) | 12.6
O=C(C[n+]1ccccc1)N/N=C/c1cc(Br)cc(Br)c1O.[Cl-] | 27
COc1cc(S(=O)(=O)N(Cc2ccccc2)Cc2ccccn2)ccc1-n1cnnn1 | 2.81
Cc1ccc(C(=O)N2CCc3ccccc32)o1 | 8.47
Cc1ccc(Nc2cc(-n3nc(C)cc3C)ncn2)c(C)c1 | -3.97
COc1ccccc1-n1c(Cc2cccs2)n[nH]c1=S | 33.3
CCN(C1CCS(=O)(=O)C1)S(=O)(=O)c1cc(C)ccc1C (centres unmarked) | -13.9
O=C(NCc1ccco1)c1cc(S(=O)(=O)N2CCOCC2)ccc1Br | -20.9
O=C(NCc1cccc(C(F)(F)F)c1)C1CC2Cn3c(nc4ccccc43)C2N1Cc1ccccc1 (centres unmarked) | -57.8
Cn1ncc(Cl)c1C(=O)N1CCC(Cc2ccccc2)CC1 | -16.4
